Measured values taken from the supplement of paper PMC8728848.
Some of the results follow.

What was measured:
Experiment in all cases: glycan array binding signal (z-score within array); higher = stronger binding
Details in all cases: glycan notation: IUPAC condensed, linker removed
[1] = biological target: Fuc(a1-2)Gal(b1-4)GlcNAc(b1-3)Gal(b1-4)GlcNAc(b1-2)Man(a1-3)[Fuc(a1-2)Gal(b1-4)GlcNAc(b1-3)Gal(b1-4)GlcNAc(b1-2)Man(a1-6)]Man(b1-4)GlcNAc(b1-4)GlcNAc
Outline: (§1)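 Columns mapping to the same glycan were averaged after glycan names were converted to IUPAC-condensed notation. The data come from 3228 arrays in the Consortium for Functional Glycomics database, limited to those with an available protein sequence. Binding is reported as a within-array Z-score averaged across arrays of one protein sequence and across linkers.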

[2] = biological target: Fuc(a1-2)Gal(b1-4)GlcNAc(b1-3)Gal(b1-4)GlcNAc(b1-3)Gal(b1-4)GlcNAc
Outline: as §1

[3] = biological target: Fuc(a1-2)Gal(b1-4)GlcNAc(b1-3)GalNAc
Outline: as §1

[4] = biological target: Fuc(a1-2)Gal(b1-4)GlcNAc(b1-3)[Fuc(a1-2)Gal(b1-4)GlcNAc(b1-6)]GalNAc
Outline: as §1

[5] = biological target: Fuc(a1-2)Gal(b1-4)GlcNAc(b1-3)[Fuc(a1-3)[Gal(b1-4)]GlcNAc(b1-6)]Gal(b1-4)Glc
Outline: as §1

[6] = biological target: Fuc(a1-2)Gal(b1-4)GlcNAc(b1-6)GalNAc
Outline: as §1

[7] = biological target: Fuc(a1-2)Gal(b1-4)GlcNAc6S
Outline: as §1

[8] = biological target: Fuc(a1-2)Gal(b1-4)[Fuc(a1-3)]GlcNAc
Outline: as §1

[9] = biological target: Fuc(a1-2)Gal(b1-4)[Fuc(a1-3)]GlcNAc(b1-2)Man(a1-3)[Fuc(a1-2)Gal(b1-4)[Fuc(a1-3)]GlcNAc(b1-2)Man(a1-6)]Man(b1-4)GlcNAc(b1-4)[Fuc(a1-6)]GlcNAc
Outline: as §1

[10] = biological target: Fuc(a1-2)Gal(b1-4)[Fuc(a1-3)]GlcNAc(b1-2)[Fuc(a1-2)Gal(b1-4)[Fuc(a1-3)]GlcNAc(b1-4)]Man(a1-3)[Fuc(a1-2)Gal(b1-4)[Fuc(a1-3)]GlcNAc(b1-2)Man(a1-6)]Man(b1-4)GlcNAc(b1-4)GlcNAc
Outline: as §1

[11] = biological target: Fuc(a1-2)Gal(b1-4)[Fuc(a1-3)]GlcNAc(b1-3)Gal(b1-4)[Fuc(a1-3)]GlcNAc
Outline: as §1

[12] = biological target: Fuc(a1-2)Gal(b1-4)[Fuc(a1-3)]GlcNAc(b1-3)Gal(b1-4)[Fuc(a1-3)]GlcNAc(b1-3)Gal(b1-4)[Fuc(a1-3)]GlcNAc
Outline: as §1

[13] = biological target: Fuc(a1-2)Gal(b1-4)[Fuc(a1-3)]GlcNAc(b1-3)GalNAc
Outline: as §1

[14] = biological target: Fuc(a1-2)Gal(b1-4)[Fuc(a1-3)]GlcNAc(b1-3)[Neu5Ac(a2-6)Gal(b1-4)GlcNAc(b1-6)]Gal(b1-4)Glc
Outline: as §1

[15] = biological target: Fuc(a1-2)Gal3S(b1-4)GlcNAc
Outline: as §1

[16] = biological target: Fuc(a1-2)Gal6S(b1-3)GlcNAc
Outline: as §1

[17] = biological target: Fuc(a1-2)Gal6S(b1-3)GlcNAc6S
Outline: as §1

Fuc(a1-2)Gal6S(b1-4)Glc = biological target: Fuc(a1-2)Gal6S(b1-4)Glc
Outline: as §1

[18] = biological target: Fuc(a1-2)Gal6S(b1-4)Glc6S
Outline: as §1

Fuc(a1-2)[Gal(a1-3)]Gal = biological target: Fuc(a1-2)[Gal(a1-3)]Gal
Outline: as §1

[19] = biological target: Fuc(a1-2)[Gal(a1-3)]Gal(b1-3)GalNAc
Outline: as §1

[20] = biological target: Fuc(a1-2)[Gal(a1-3)]Gal(b1-3)GalNAc(b1-3)Gal(a1-4)Gal(b1-4)Glc
Outline: as §1

[21] = biological target: Fuc(a1-2)[Gal(a1-3)]Gal(b1-3)GlcNAc
Outline: as §1

[22] = biological target: Fuc(a1-2)[Gal(a1-3)]Gal(b1-3)GlcNAc(b1-2)Man(a1-3)[Fuc(a1-2)[Gal(a1-3)]Gal(b1-3)GlcNAc(b1-2)Man(a1-6)]Man(b1-4)GlcNAc(b1-4)GlcNAc
Outline: as §1

[23] = biological target: Fuc(a1-2)[Gal(a1-3)]Gal(b1-3)GlcNAc(b1-2)Man(a1-3)[Fuc(a1-2)[Gal(a1-3)]Gal(b1-3)GlcNAc(b1-2)Man(a1-6)]Man(b1-4)GlcNAc(b1-4)[Fuc(a1-6)]GlcNAc
Outline: as §1

[24] = biological target: Fuc(a1-2)[Gal(a1-3)]Gal(b1-3)GlcNAc(b1-3)GalNAc
Outline: as §1

[25] = biological target: Fuc(a1-2)[Gal(a1-3)]Gal(b1-3)GlcNAc(b1-6)GalNAc
Outline: as §1

[26] = biological target: Fuc(a1-2)[Gal(a1-3)]Gal(b1-4)Glc
Outline: as §1

[27] = biological target: Fuc(a1-2)[Gal(a1-3)]Gal(b1-4)GlcNAc
Outline: as §1

[28] = biological target: Fuc(a1-2)[Gal(a1-3)]Gal(b1-4)GlcNAc(b1-2)Man
Outline: as §1

[29] = biological target: Fuc(a1-2)[Gal(a1-3)]Gal(b1-4)GlcNAc(b1-2)Man(a1-3)[Fuc(a1-2)[Gal(a1-3)]Gal(b1-4)GlcNAc(b1-2)Man(a1-6)]Man(b1-4)GlcNAc(b1-4)GlcNAc
Outline: as §1

[30] = biological target: Fuc(a1-2)[Gal(a1-3)]Gal(b1-4)GlcNAc(b1-2)Man(a1-3)[Fuc(a1-2)[Gal(a1-3)]Gal(b1-4)GlcNAc(b1-2)Man(a1-6)]Man(b1-4)GlcNAc(b1-4)[Fuc(a1-6)]GlcNAc
Outline: as §1

[31] = biological target: Fuc(a1-2)[Gal(a1-3)]Gal(b1-4)GlcNAc(b1-3)GalNAc
Outline: as §1

[32] = biological target: Fuc(a1-2)[Gal(a1-3)]Gal(b1-4)GlcNAc(b1-3)[Fuc(a1-2)[Gal(a1-3)]Gal(b1-4)GlcNAc(b1-6)]GalNAc
Outline: as §1

[33] = biological target: Fuc(a1-2)[Gal(a1-3)]Gal(b1-4)GlcNAc(b1-6)GalNAc
Outline: as §1

[34] = biological target: Fuc(a1-2)[Gal(a1-3)]Gal(b1-4)[Fuc(a1-3)]Glc
Outline: as §1

[35] = biological target: Fuc(a1-2)[Gal(a1-3)]Gal(b1-4)[Fuc(a1-3)]GlcNAc
Outline: as §1

B1: DC-ASGPR-short (Homo sapiens) (protein)
chain: MTRTYENFQYLENKVKVQGFKNGPLPLQSLLQRLRSGPCHLLLSLGLGLLLLVIICVVGFQNSKFQRDLVTLRTDFSNFTSNTVAEIQALTSQGSSLEETIASLKAEVEGFKQERQAVHSEMLLRVQQLVQDLKKLTCQVATLNNNASTEGTCCPVNWVEHQDSCYWFSHSGMSWAEAEKYCQLKNAHLVVINSREEQNFVQKYLGSAYTWMGLSDPEGAWKWVDGTDYATGFQNWKPGQPDDWQGHGLGGGEDCAHFHPDGRWNDDVCQRPYHWVCEAGLGQTSQESH
B1 was tested, and the “glycan array binding signal (z-score)” value [1] was -0.195, the “glycan array binding signal (z-score)” value [2] was -0.281 and the “glycan array binding signal (z-score)” value [3] was -0.243. The “glycan array binding signal (z-score)” value [4] was 0.01, the “glycan array binding signal (z-score)” value [5] was -0.276 and the “glycan array binding signal (z-score)” value [6] was 4.65. For the same binder, the “glycan array binding signal (z-score)” value [7] was -0.281, the “glycan array binding signal (z-score)” value [8] was -0.259 and the “glycan array binding signal (z-score)” value [9] was -0.24. The “glycan array binding signal (z-score)” value [10] was -0.192, the “glycan array binding signal (z-score)” value [11] was -0.251 and the “glycan array binding signal (z-score)” value [12] was -0.236. The “glycan array binding signal (z-score)” value [13] was -0.221, the “glycan array binding signal (z-score)” value [14] was -0.273 and the “glycan array binding signal (z-score)” value [15] was -0.284. For the same binder, the “glycan array binding signal (z-score)” value [16] was -0.261, the “glycan array binding signal (z-score)” value [17] was 0.591 and the “glycan array binding signal (z-score)” value (Fuc(a1-2)Gal6S(b1-4)Glc) was -0.285. The “glycan array binding signal (z-score)” value [18] was -0.281, the “glycan array binding signal (z-score)” value (Fuc(a1-2)[Gal(a1-3)]Gal) was -0.271 and the “glycan array binding signal (z-score)” value [19] was -0.265. The “glycan array binding signal (z-score)” value [20] was -0.276, the “glycan array binding signal (z-score)” value [21] was -0.271 and the “glycan array binding signal (z-score)” value [22] was -0.267. For the same binder, the “glycan array binding signal (z-score)” value [23] was -0.268, the “glycan array binding signal (z-score)” value [24] was -0.254 and the “glycan array binding signal (z-score)” value [25] was 2.65. The “glycan array binding signal (z-score)” value [26] was -0.263, the “glycan array binding signal (z-score)” value [27] was -0.273 and the “glycan array binding signal (z-score)” value [28] was -0.267. The “glycan array binding signal (z-score)” value [29] was -0.281, the “glycan array binding signal (z-score)” value [30] was -0.247 and the “glycan array binding signal (z-score)” value [31] was -0.27. The “glycan array binding signal (z-score)” value [32] was -0.17, the “glycan array binding signal (z-score)” value [33] was -0.273 and the “glycan array binding signal (z-score)” value [34] was -0.277. The “glycan array binding signal (z-score)” value [35] was -0.343.
